This test has as its target RSV F-glycoprotein (Human respiratory syncytial virus A, UniProt C3UPB4). The test can be described thus: cell-based.

`COc1cc(C(=O)Nc2ccc(-n3nc4cc(Cl)c(Cl)cc4n3)cc2)cc(OC)c1OC` [8d, N-[4-(5,6-dichloro-2H-benzo[d][1,2,3]triazol-2-yl)phenyl]-3,4,5-trimethoxybenzamide] had an EC50 of 4.5 µM. That is a single-digit micromolar value.

As for `CCCNC(=O)Nc1ccc(-n2nc3cc(Cl)c(Cl)cc3n2)cc1` [10b, 1-[4-(5,6-dichloro-2H-benzo[d][1,2,3]triazol-2-yl)phenyl]-3-propylurea], the midpoint of the response, the EC50, lay at 3.9 µM.

Compound `O=C(Nc1ccc(-n2nc3cc(Cl)c(Cl)cc3n2)cc1)NC1CCCCC1` [10d, 1-[4-(5,6-dichloro-2H-benzo[d][1,2,3]triazol-2-yl)phenyl]-3-cyclohexylurea] registered a half-maximal effective concentration (EC50) of 3.2 µM.

A word on the EC50: it is the concentration needed to bring the measured effect to its halfway point. A higher EC50 goes with a need for much substance.

These data come from paper PMC6476926, “Dichloro-Phenyl-Benzotriazoles: A New Selective Class of Human Respiratory Syncytial Virus Entry Inhibitors” (Frontiers in Chemistry, 2019).
